Reference: PubChem BioAssay AID2675 (National Center for Advancing Translational Sciences (NCATS), 2010)
Among all 280,000 compounds or so, about 100 (0.036%) were called active. The shares of active, inactive and inconclusive entries below differ from those in the screen. Calls follow the shape of the dose curve; as a rule, active = well fitted inhibition curve with a large enough effect in the signal ratio, with a control signal flat (not every such curve was filed as active); inconclusive = small, poorly fitted or top-dose-only effect, or effect the other way, or a change in a side signal; inactive = no such curve, though single readings can be large or run the other way; the % refers to the signal ratio. A potency beside an inconclusive call is a rough fit, not a confirmed value. A note “side channel” means that the fit belongs to a control or component signal, not to the main read-out.

What follows are compounds tested against Muscleblind-like protein 1 (Homo sapiens) (UniProt Q9NR56) (assay: qHTS Assay for Inhibitors of MBNL1-poly(CUG) RNA binding). Settings: TR-FRET MBNL1-His/biotin-(CUG)12 binding, 665/545 ratio; activity change, negative = inhibition: at 57.5 µM (top of the series).
UniProt Q9NR56, sequence (Q9NR56 whole entry, looked up): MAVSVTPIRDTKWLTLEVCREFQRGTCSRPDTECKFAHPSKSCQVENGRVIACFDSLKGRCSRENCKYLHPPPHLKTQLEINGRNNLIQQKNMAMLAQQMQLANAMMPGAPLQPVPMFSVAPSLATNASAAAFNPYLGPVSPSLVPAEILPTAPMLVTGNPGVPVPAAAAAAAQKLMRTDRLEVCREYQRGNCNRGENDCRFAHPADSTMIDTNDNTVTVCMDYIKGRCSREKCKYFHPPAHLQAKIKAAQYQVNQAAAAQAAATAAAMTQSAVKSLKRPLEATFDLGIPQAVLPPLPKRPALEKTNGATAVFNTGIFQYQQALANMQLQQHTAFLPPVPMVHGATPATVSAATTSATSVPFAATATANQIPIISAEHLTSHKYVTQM
Procedure, shortened: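 Compound titration spanned 92 nM–58 uM against the MBNL1-His/biotin-(CUG)12 complex. After 60 min at room temperature with 5 nM streptavidin-XL665 and 0.055 ng/ul terbium anti-His, ratiometric 665/545 nm emission (Ex 340 nm) normalized to controls.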
% is scaled to controls: 0 for no effect and ±100 for the full control effect; potency is read from the fitted curve at half-maximal effect; tags tell the direction and shape of the fitted curve or compound fluorescence and quenching.

Structure (SMILES)	Potency	activity change, negative = inhibition
CCc1c(C)c2cc(Cl)c(O)c(CN(C)C)c2oc1=O	inactive	–
Clc1ccccc1OCc1nn[nH]n1	inactive	–
O=C(Nc1ccccc1)N1N=C(c2cccs2)CC1c1cccs1 (stereo not given)	inconclusive: 6.31 µM [quencher, side channel, single point]	–
O=[N+]([O-])c1ccc(CCNc2cccc3ccccc23)c([N+](=O)[O-])c1	inconclusive: 22.4 µM [quencher, side channel, single point]	–
Cc1cc2n(n1)C(c1ccc(O)cc1)Nc1ccccc1-2 (stereo not given)	inactive	–
N#Cc1cc([N+](=O)[O-])ccc1NCCc1ccccn1	inconclusive: 14.1 µM [quencher, side channel, partial curve]	–
O=c1c2ccccc2oc2nc3ccn(Cc4ccncc4)c(=O)c3cc12	inconclusive: 2.24 µM [quencher, side channel, full curve]	–
c1ccc(C2NCCc3ccccc32)cc1 (stereo not given)	inactive	–
CCc1sc(C(C2C(=O)CC(C)(C)CC2=O)C2C(=O)CC(C)(C)CC2=O)cc1[N+](=O)[O-]	inactive	–
COCCNC(=O)Cn1nc(-c2ccc(C)cc2)ccc1=O	inconclusive: 35.5 µM [quencher, side channel, single point]	–
CC(=O)c1ccc(NC(=O)/C(=C\c2ccco2)NC(=O)c2ccco2)cc1	inconclusive: 31.6 µM [quencher, side channel, partial curve]	–
N/C(Cc1ccc([N+](=O)[O-])cc1)=N\OC(=O)Cc1ccc(Cl)cc1	–	inconclusive: 5.83% [phenotype inactive]
Clc1ccccc1Nc1ncnc2c1nnn2Cc1ccccc1	inactive	–
Cc1c(CCC(=O)O)c(=O)oc2c(C)c3occ(-c4ccc(Br)cc4)c3cc12	inactive	–
CCOC(=O)C1CCCN(c2c(Nc3ccc(OCC)cc3)c(=O)c2=O)C1 (stereo not given)	inconclusive: 14.1 µM [quencher, side channel, partial curve]	–
CC(Sc1nnc(COc2ccccc2)n1Cc1ccccc1)C(=O)O (stereo not given)	inconclusive: 79.4 µM [inhibitor, single point]	–
COC(=O)[C@H]1C[C@@H]1[C@H](NC(=O)c1ccccc1)c1ccccc1	inconclusive: 100 µM [inhibitor, partial curve]	–
CCCn1c2c(c(O)c(C(=O)Nc3ccc(OC)cc3)c1=O)CCCC2	inactive	–
O=[N+]([O-])c1ccccc1CNC1CCCCCC1	inconclusive: 6.31 µM [quencher, side channel, partial curve]	–
CC(=O)Nc1ccc(OCc2cccc([N+](=O)[O-])c2)cc1	inconclusive: 14.1 µM [quencher, side channel, partial curve]	–
COc1cccc(/C=C/C(=O)c2cccc([N+](=O)[O-])c2)c1	inconclusive: 25.1 µM [quencher, side channel, partial curve]	–
COc1ccc(OC)c(Cc2nnc(CCC(=O)N3CCC(N4CCCCC4)CC3)o2)c1	inconclusive: 5.01 µM [inhibitor, single point]	–

Structure (SMILES)	Potency	activity change, negative = inhibition
COc1ccc(C(=O)N/C(=C\c2cn(C)c3ccccc23)C(=O)NCCCn2ccnc2)cc1	inconclusive: 15.8 µM [quencher, side channel, partial curve]	–
O=c1c2nccnc2[nH]c(=S)n1Cc1ccccc1Cl	inconclusive: 31.6 µM [quencher, side channel, single point]	–
COc1ccc(NCc2nc3ccccc3n2CCOc2ccccc2)cc1	inactive	–
O=C(NCc1ccco1)C1CCCN(S(=O)(=O)c2cccc3nonc23)C1 (stereo not given)	inconclusive: 14.1 µM [quencher, side channel, partial curve]	–
Cc1ccc(C(=O)N(C)CC(=O)Nc2cccc(C)c2C)o1	inactive	–
CCOc1ccc(-c2cnc3ccccc3n2)cc1	inconclusive: 3.98 µM [quencher, side channel, full curve, poor fit]	–
O=C(Nc1ccccc1N1CCN(C(=O)c2ccc(Cl)cc2)CC1)c1ccc2c(c1)OCO2	inactive	–
C[C@H]1CNC(=O)C(=O)N1C[C@H](Cc1ccc(O)cc1)NC(=O)CC12CC3CC(CC(C3)C1)C2	inactive	–
Cc1nc([N+](=O)[O-])c(C(=O)OCc2ccccc2F)n1C	inconclusive: 22.4 µM [quencher, side channel, single point]	–
CC(C)CN1C(=O)C(=Nc2cccnc2)c2ccccc21	inconclusive: 25.1 µM [quencher, side channel, partial curve]	–
COc1ccc2[nH]c(=O)c(CNc3cc(C)ccc3C)cc2c1	inconclusive: 31.6 µM [quencher, side channel, partial curve]	–
CC1Cc2ccccc2N1C(=O)c1cccnc1 (stereo not given)	inconclusive: 2.24 µM [fluorescent, side channel, full curve, poor fit]	–
Cc1ccc(N(CC(=O)N=Nc2c(O)[nH]c3ccccc23)S(C)(=O)=O)c(C)c1	inconclusive: 14.1 µM [quencher, side channel, partial curve]	–
O=C(/C=C/c1ccc([N+](=O)[O-])cc1)N1CCN(Cc2ccccc2)CC1	inconclusive: 2.82 µM [quencher, side channel, full curve]	–
O=Nc1c(O)[nH]c2ccc(F)cc12	inconclusive: 22.4 µM [quencher, side channel, single point]	–
O=C(CSc1nc2nccnc2c(=O)n1Cc1cccs1)Nc1ccccc1F	inconclusive: 25.1 µM [quencher, side channel, partial curve]	–
Cc1ccc2nc(N3CCN(c4ccccc4F)CC3)c(C=O)c(=O)n2c1	inactive	–
O=C(NCc1ccc2c(c1)OCO2)c1nc(S(=O)(=O)Cc2ccccc2F)ncc1Cl	inactive	–
O=C(NCc1ccccc1)c1ccc2c(c1)C(=O)N(Cc1ccncc1)C2=O	inconclusive: 11.2 µM [quencher, side channel, partial curve]	–
C=CCNC(=O)c1ccc2nccnc2c1	inconclusive: 10 µM [quencher, side channel, partial curve]	–
O=C(c1ccco1)N1CCN(C(=O)c2cc(-c3ccccc3)nc3ccccc23)CC1	inactive	–
COc1ccccc1/C=C(/CC(=O)NCc1ccc(F)cc1)c1nc2ccccc2s1	inconclusive: 31.6 µM [quencher, side channel, single point]	–

Structure (SMILES)	Potency	activity change, negative = inhibition
CCOC(=O)c1cc(C#N)c(N2CCCC2)nc1-c1ccccc1	inactive	–
Cc1ccc(/C(N)=N/OC(=O)c2cccc(F)c2)cc1	inactive	–
CC(=O)C1=C(O)C(=O)N(CCCN2CCOCC2)C1c1ccccc1[N+](=O)[O-] (stereo not given)	inconclusive: 4.47 µM [quencher, side channel, full curve, poor fit]	–
Cc1cc([N+](=O)[O-])ccc1NC(=O)C(C)N1CCN(c2ccccn2)CC1 (stereo not given)	inconclusive: 7.94 µM [quencher, side channel, partial curve]	–
Cc1[nH]n(-c2ccccc2)c(=O)c1N=Nc1nccs1	inconclusive: 28.2 µM [quencher, side channel, partial curve]	–
O/N=C(\Cc1cscn1)c1ccc(O)cc1O	inactive	–
O=[N+]([O-])c1cc2c(c(CSc3ncccn3)c1)OCOC2	inconclusive: 17.8 µM [quencher, side channel, partial curve]	–
O=C1c2c(O)ccc(O)c2C(=O)c2c(NCCNCCO)ccc(NCCNCCO)c21	inconclusive: 14.1 µM [quencher, side channel, partial curve]	–
c1ccc2nc3c(nc2c1)OCC1CCCCN31 (stereo not given)	inconclusive: 14.1 µM [quencher, side channel, partial curve]	–
CCOC(=O)C(C)(C)N(Cc1cccc(C)c1)S(=O)(=O)c1cccc([N+](=O)[O-])c1	inconclusive: 10 µM [quencher, side channel, partial curve]	–
O=C1c2ccccc2-c2c1cccc2C(=O)N(CCO)CCO	inconclusive: 15.8 µM [quencher, side channel, partial curve]	–
COc1ccc(NC(=O)CCCC(=O)OCC(=O)c2cccc(OC)c2)cc1	inconclusive: 39.8 µM [fluorescent, single point]	–
O=C(CSc1ccc(Cl)cc1)Nc1cc(-c2nc3ncccc3o2)ccc1Cl	inconclusive: 0.794 µM [fluorescent, side channel, partial curve]	–
COc1ccc(Cn2c(-c3ccc(C)cc3)c[n+]3ccccc23)cc1	inactive	–
CCCCNC(=O)C1CCCN1S(=O)(=O)c1cccc2nsnc12 (stereo not given)	inconclusive: 14.1 µM [quencher, side channel, partial curve]	–
COC(=O)c1sccc1-c1ccc(C(N)=O)o1	inconclusive: 28.2 µM [quencher, single point]	–
Cc1ccc(C(=O)NNC(=S)NC(=O)c2ccco2)cc1	inactive	–
c1ccc(-n2nnnc2Sc2n[nH]c(-c3ccncc3)n2)cc1	inconclusive: 63.1 µM [inhibitor, single point]	–
O=C1SC(SCc2ccccc2)=N/C1=C\c1ccc(C(=O)O)cc1	inactive	–
COC(=O)/C=C1/S/C(=N/N=C/c2ccc(N(C)C)cc2)NC1=O	inconclusive: 0.1 µM [fluorescent, side channel, partial curve, poor fit]	–
CC(=O)c1cnc(-c2ccccn2)s1	inconclusive: 14.1 µM [quencher, side channel, partial curve]	–
